Results published in PubChem BioAssay AID1745845 (National Center for Advancing Translational Sciences (NCATS), 2022).
The campaign covered roughly 360,000 compounds. About 2,600 (0.72%) were called active. Inconclusive means that the source gave no clear call. Such entries were picked first, then a sample of the others. Calls follow the shape of the dose curve; as a rule, active = well fitted inhibition curve with a large enough effect; inconclusive = small, poorly fitted or top-dose-only effect; inactive = no such curve, though single readings can be large or run the other way. Potencies beside an inconclusive call are fits to weak or partial responses and may not hold up.

test: Primary qHTS for Inhibitors of ATXN expression; details: HEK-293 ATXN2-luciferase reporter, luminescence, 24 h; activity change, negative = inhibition: at 57 µM (top of the series); also: nearly all actives have a fitted effect of over 55% in size
Source text: University of Utah School of Medicine, Salt Lake City, Utah
Spinocerebellar ataxia type 2 (SCA2) is a multisystem neurodegenerative disease caused by a dominantly acting mutation leading to expansion of a polyQ domain in the ataxin-2 protein (ATXN2). SCA2 patients develop progressive ataxia and later lose function in other neuronal systems. Prominent parkinsonian signs develop in some patients. Like many neurodegenerative disorders, no symptomatic or disease-modifying treatments are known.
The primary objective of the proposed research is to identify compounds inhibiting ATXN2 expression and to test them for efficacy in SCA2 mouse models. We have developed a cell-based assay paired with an in vivo mouse model using identical luciferase expression constructs. This approach takes advantage of an ATXN2-luciferase transgene, with the luciferase gene flanked by the upstream and downstream portions of the ATXN2 gene. Here we describe a 5-7 dose quantitative high thoroughput screen (qHTS) for compounds lowering ATXN2 expression. We screened the NIH Molecular Libraries Small Molecule Repository (MLSMR) and NCGC's mechanistically annotated (MIPE) and drug repurposing (NPC) collections of compounds for lowering expression of an ATXN2-luciferase reporter in HEK-293 cells. The assay is a multiplexed cell viability assay to ensure target reduction in the absence of cytotoxicity. Secondary qHTS assays included a CMV-luciferase reporter expressed in HEK-293 cells as well as a biochemical assay using recombinant luciferase to detect inhibitors of the reporter enzyme. Compounds that inhibit ATXN2 expression but is not cytotoxic were selected for confirmatory and secondary screens.
PROTOCOL TABLE (as described by Inglese J, Shamu CE and Guy RK. 2007)
SEQUENCE No. (e.g., 1, 2, 3, etc.); […] (e.g., Cells, Incubation, Reagent, etc.); VALUE; DESCRIPTION.
1; Cells; 4 uL; white, solid bottom, 1536-well Greiner assay plate.
2; Incubation; 2 hr; 37 degree C in 5% humidified CO2.
3; Compounds; 23 nL; Kalypsis pintool (Wako USA) equipped with a 1536-well pin head.
4; Incubation; 24 hr; 37 degree C in 5% humidified CO2.
5; Reagent; 1 uL; Gly-Phe-7-Amino-4-trifluoromethylcoumarin.
6; Incubation; 30 min; 37 degree C in 5% humidified CO2.
7; Detection; Fluorescence; ViewLux plate reader (PerkinElmer).
8; Reagent; 3 uL; SteadyGlo luciferase solution (Promega).
9; Incubation; 5 min; room temperature.
10; Detection; Luminescence; ViewLux plate reader (PerkinElmer).
NOTES (numbers refer to Sequence numbers above)
1. S2 cells expressing ATXN2-luciferase reporter were suspended in phenol-red free DMEM and dispensed in assay plates using a Multidrop Combi dispenser (Thermo Fisher Scientific).
2. Assay plates were incubated. Evaporation was prevented by covering assay plates with metal lids containing holes to allow gas diffusion.
3. Compounds were added in a dose response manner with the final concentrations of 57, 11.4, 2.28, 0.46, 0.091, 0.018, 0.0037 uM. Vehicle-only plates, with DMSO being pin-transferred to columns 5-48, were inserted uniformly at the beginning and the end of each library to monitor and record any shifts in assay performance.
5. 125 uM Gly-Phe-7-Amino-4-trifluoromethylcoumarin (MP Biomedicals) working concentration was used at a final concentration of 25 uM.
7. To assess cell viability; the assay plates were read using the ViewLux high-throughput CCD imager (PerkinElmer), wherein single end-point fluorescence measurement was acquired (excitation 405/10; emission 540/25 nm).
8. Detection reagent SteadyGlo Luciferase (Promega) was added to the assay plate.
10. Luminescence is then measured on the ViewLux imager equipped with a clear emission filter using a 2 sec exposure. All screening operations were performed on a fully integrated robotic system (Kalypsys) containing one RX-130 and two RX-90 anthropomorphic robotic arms (Staubli).
[…]
% is scaled to controls: 0 for no effect and ±100 for the full control effect; potency is read from the fitted curve at half-maximal effect; tags tell the direction and shape of the fitted curve.

SMILES | Potency | activity change, negative = inhibition
O=C(c1ccc(CS(=O)(=O)c2c(Cl)cccc2Cl)o1)N1CCN(c2ccccc2)CC1 | inconclusive: 39.8 µM [inhibitor, partial curve, poor fit] | 
COC(=O)CCC(C)C1CCC2C3CCC4CC(O)CCC4(C)C3CC(O)C12C (stereo unspecified) | inconclusive: 39.8 µM [inhibitor, single point] | 
CCOc1ccc(N(C)S(=O)(=O)c2cc(-c3cc(C)no3)ccc2C)cc1 | inconclusive: 8.91 µM [inhibitor, partial curve, poor fit] | 
COc1ccc(N2CCN(c3ccnc4cc(Cl)ccc34)CC2)cc1 |  | inconclusive: -58% [inhibitor]
Oc1ccc(CN2CCC(Cc3ccccc3)CC2)c2cccnc12 | inconclusive: 20 µM [inhibitor, partial curve, poor fit] | 
CC1(C)OC2C(CO)OC(n3cnc4c(=S)nc(N)[nH]c43)C2O1 (stereo unspecified) |  | inactive: -9.8%
COc1ccc(NC(=O)CN(C)C(=O)c2cc(-c3ccc(Cl)cc3)nc3ccccc23)cc1 | inconclusive: 39.8 µM [inhibitor, single point] | 
CCOc1ccc(-c2cc(C(=O)N3CCN(c4cccc(C(F)(F)F)c4)CC3)c3ccccc3n2)cc1 |  | inactive: 10.5%
O=C(Nc1ccccc1)N1CCN(c2ccc(C(F)(F)F)cn2)CC1 | inconclusive: 14.1 µM [inhibitor, partial curve, poor fit] | 
O=C(Oc1ccc(/C=N/n2cnnc2)cc1)c1cccc([N+](=O)[O-])c1 | inconclusive: 6.7 µM [inhibitor, partial curve, poor fit] | 
COc1ccc(CN2CCC(C(=O)Nc3ccc(Oc4cccnc4)cc3)CC2)cc1 |  | inactive: -11.8%
CCN(CC)c1ccc(CNc2nc3ccccc3n2CCN2CCOCC2)cc1 | inconclusive: 22.4 µM [inhibitor, partial curve, poor fit] | 
CC(=O)Nc1ccc(-c2ccnc3c2CC(C)(C(=O)Nc2ccc(C(C)C)cc2)O3)cc1 (stereo unspecified) | inconclusive: 35.5 µM [inhibitor, single point] | 
CCCCNC(=O)C1(C)CCCCCN1Cc1cccc2c(OC)cc(C(=O)OCC)cc12 (stereo unspecified) | inconclusive: 39.8 µM [inhibitor, single point] | 
COc1cc(OC)c(OC)cc1/C=N/NC(=S)NCC1CCCO1 (stereo unspecified) |  | inactive: -4.24%
OC(COC(c1ccc(Cl)cc1)c1ccc(Cl)cc1)CN1CCc2ccccc2C1 (stereo unspecified) | active: 28.2 µM | 
COC(=O)C(Cc1c[nH]c2ccccc12)NC(=O)CNC(C)=O (stereo unspecified) |  | inactive: 0.607%
COc1ccccc1C(=O)Nc1cccc2cccnc12 |  | inactive: 63%
Cc1ccc(S(=O)(=O)Oc2ccc(N3C(=O)C4C5CCC(C5)C4C3=O)cc2)cc1 (stereo unspecified) |  | inactive: -7.6%
Cc1ccc(S(=O)(=O)N(Cc2ccccc2)c2ccccc2C(=O)N2CCCCC2)cc1 | inconclusive: 31.6 µM [inhibitor, single point] | 
Cc1nn(C)c(C)c1NC(=S)Nc1ccc(S(=O)(=O)Nc2ncccn2)cc1 |  | inactive: -4.93%
COc1ccc(C(=O)Nc2ccc(N3CCOCC3)c(C(F)(F)F)c2)cc1OC | inconclusive: 39.8 µM [inhibitor, single point] | 
COc1cccc2c1CCCC2CCCN1CCN(C2CCCCC2)CC1 (stereo unspecified) | inconclusive: 15.3 µM [inhibitor, partial curve] | 

SMILES | Potency | activity change, negative = inhibition
C[C@H]1O[C@@H](n2cc(F)c(=O)[nH]c2=O)[C@H](O)[C@@H]1O | inactive | 
CCn1c(COc2cccc(C)c2C)nnc1SCC(=O)N1CCN(c2ccc(OC)cc2)CC1 |  | inactive: -17.8%
C(=C\c1ccccc1)/CN1CCN(C(CCc2ccccc2)c2nnnn2-c2ccc3c(c2)OCCO3)CC1 (stereo unspecified) |  | inactive: -6.92%
Cc1nn(CCCC(=O)Nc2cnn(Cc3ccc(F)cc3)c2)c(C)c1[N+](=O)[O-] |  | inactive: -25%
Cc1ccc(C(=O)/C=C/c2ccc(-c3ccccc3[N+](=O)[O-])o2)cc1 |  | inactive: -17.4%
Cc1ccc2nc(Nc3ccc4[nH]c(=O)[nH]c4c3)c(-n3nc(C)cc3C)nc2c1 | inconclusive: 39.8 µM [inhibitor, single point] | 
Cc1ccc(CN2C(=O)[C@H]3Cc4c([nH]c5ccccc45)C(C)(C)N3C2=O)cc1 | inconclusive: 39.8 µM [inhibitor, single point] | 
COc1ccc(N2CCN(C(=O)COC(=O)c3cccc(S(=O)(=O)Nc4cccc(C)c4)c3)CC2)cc1 | inconclusive: 20 µM [inhibitor, single point] | 
CSc1ccc(CN2C(=O)NC3(CCCCC3)C2=O)cc1 |  | inactive: -18.6%
CCCSc1nc2c(cnn2-c2ccc(C)cc2)c(=O)[nH]1 |  | inactive: -5.29%
CC(C)CN(CC(C)C)S(=O)(=O)N1CCC(C(=O)NCc2ccc(F)cc2)CC1 |  | inactive: -8.47%
O[C@H]1CN(CC2CCCCC2)[C@@H](c2ccc(Cl)cc2)C[C@@H]1n1cc(C2CC2)nn1 | inconclusive: 22.4 µM [inhibitor, partial curve] | 
COc1cccc(N(CC(=O)NCCSc2ccccn2)S(=O)(=O)c2ccccc2)c1 |  | inactive: -23.1%
COc1ccc(OC)c(CNC(=O)CN2CC(C)Sc3ccccc32)c1 (stereo unspecified) |  | inactive: -6.4%
C=CC[n+]1ccc(/C=C2\C=Cc3cc(C)ccc3N2CC)c2ccccc21 | inconclusive: 0.947 µM [inhibitor, full curve] | 
CCOc1ccccc1NC(=O)CCc1nnc2ccc(N3CCC4(CC3)OCCO4)nn12 |  | inactive: -11.5%
CCOC(=O)C1(C(=O)OCC)NC(=O)CC1C (stereo unspecified) |  | inactive: -0.759%
O=C1C(=O)c2ccc(-c3ccccc3)cc2-c2ccccc21 | inconclusive: 2.82 µM [inhibitor, full curve, poor fit] | 
O=C(NC(=S)NNC(=O)c1cnccn1)c1ccc(Cl)cc1 | inconclusive: 12.6 µM [inhibitor, partial curve] | 
CCc1nnc(NC(=O)c2cc(Cl)ccn2)s1 |  | inconclusive: -42.8% [inhibitor]
COc1ccccc1NC(=O)c1ccccc1NC(=O)c1ccccn1 |  | inactive: -8.21%
O=C(Cc1sc(-c2ccccc2)nc1-c1ccccc1)Nc1ccc(Cl)cc1 | inconclusive: 39.8 µM [inhibitor, single point] | 
Cc1ccc(N2CCN(S(=O)(=O)c3ccc4[nH]c5c(c4c3)CCCCC5)CC2)c(C)c1 |  | inactive: -14.7%
